Measurements reported in the supplement of paper PMC12217912.
This is one part of the list. Sequences were assembled here from the parent chain. Values near 0.05 are background.

B1: TEV protease; numbered along this chain (parent)
chain: MGESLFKGPRDYNPISSSICHLTNESDGHTTSLYGIGFGPFIITNKHLFRRNNGTLVVQSLHGVFKVKDTTTLQQHLVDGRDMIIIRMPKDFPPFPQKLKFREPQREERICLVTTNFQTKSMSSMVSDTSCTFPSGDGIFWKHWIQTKDGQCGSPLVSTRDGFIVGIHSASNFTNTNNYFTSVPKNFMELLTNQEAQQWVSGWRLNADSVLWGGHKVFMVKPEEPFQPVKEATQL

Variants of: B1
Experiment: raw area under fraction-flipped curve 0-4 h after induction (AUC4h, not background-subtracted), DNA-recorder readout of cleavage of the substrate (dimensionless); higher = more cleavage of the substrate by the protease variant
Conditions: temperature: 34 °C; time window: 0-4 h after rhamnose induction
Protocol: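 In vivo DNA recorder in E. coli TOP10(DE3) ΔrhaA at 34 °C. Each TEVp single-site mutant (parent TEVp 0) is paired with a single-site variant of the 7-mer TEVs (canonical ENLYFQ|S). The substrate sits between flexible linkers in a Bxb1-sfGFP-TEVs-SsrA fusion, so cleavage stabilises Bxb1 and speeds flipping of a recombination array, read by NGS. The value is the raw area under the fraction-flipped curve over 0-4 h after rhamnose induction (AUC4h), with ≥20 reads per time point. It is not background-subtracted; inactive controls average about 0.047.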
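Note: Bxb1 expression induced with 0.2% (w/v) L-rhamnose at OD600 near 0.5, cultures sampled hourly, flipped fraction per protease–substrate barcode pair counted by paired-end Illumina sequencing.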

Variant | area with substrate CNLYFQS | area with substrate FNLYFQS | area with substrate GNLYFQS | area with substrate INLYFQS | area with substrate LNLYFQS | area with substrate PNLYFQS | area with substrate SNLYFQS | area with substrate VNLYFQS | area with substrate WNLYFQS | area with substrate YNLYFQS | area with substrate HNLYFQS | area with substrate KNLYFQS | area with substrate NNLYFQS | area with substrate TNLYFQS | area with substrate MNLYFQS | area with substrate DNLYFQS | area with substrate RNLYFQS | area with substrate QNLYFQS
MGESLFKGPRDYNPISSSICHLTNESDGHTTSLYGIGFGPFIITNKHLFRRNNGTLVVQSLHGVFKVKDTTTLQQHLVDGRDMIFIRMPKDFPPFPQKLKFREPQREERICLVTTNFQTKSMSSMVSDTSCTFPSGDGIFWKHWIQTKDGQCGSPLVSTRDGFIVGIHSASNFTNTNNYFTSVPKNFMELLTNQEAQQWVSGWRLNADSVLWGGHKVFMVKPEEPFQPVKEATQL [I85F] | 0.0466 | 0.0694 | 0.0756 | 0.0598 | 0.0757 | 0.0617 | 0.0678 | 0.0608 | 0.0552 | 0.0677 |  |  |  |  |  |  |  | 
MGESLFKGPRDYNPISSSICHLTNESDGHTTSLYGIGFGPFIITNKHLFRRNNGTLVVQSLHGVFKVKDTTTLQQHLVDGRDMIKIRMPKDFPPFPQKLKFREPQREERICLVTTNFQTKSMSSMVSDTSCTFPSGDGIFWKHWIQTKDGQCGSPLVSTRDGFIVGIHSASNFTNTNNYFTSVPKNFMELLTNQEAQQWVSGWRLNADSVLWGGHKVFMVKPEEPFQPVKEATQL [I85K] | 0.0592 |  |  | 0.0459 |  | 0.0398 |  |  | 0.0595 | 0.0441 | 0.053 | 0.0531 | 0.047 | 0.0527 |  |  |  | 
MGESLFKGPRDYNPISSSICHLTNESDGHTTSLYGIGFGPFIITNKHLFRRNNGTLVVQSLHGVFKVKDTTTLQQHLVDGRDMIIIRMPKCFPPFPQKLKFREPQREERICLVTTNFQTKSMSSMVSDTSCTFPSGDGIFWKHWIQTKDGQCGSPLVSTRDGFIVGIHSASNFTNTNNYFTSVPKNFMELLTNQEAQQWVSGWRLNADSVLWGGHKVFMVKPEEPFQPVKEATQL [D91C] | 0.0533 |  | 0.0816 | 0.0769 | 0.068 | 0.0539 | 0.0788 |  | 0.0572 |  |  |  |  | 0.0664 |  |  |  | 
MGESLFKGPRDYNPISSSICHLTNESDGHTTSLYGIGFGPFIITNKHLFRRNNGTLVVQSLHGVFKVKDTTTLQQHLVDGRDMIIIRMPKDFPEFPQKLKFREPQREERICLVTTNFQTKSMSSMVSDTSCTFPSGDGIFWKHWIQTKDGQCGSPLVSTRDGFIVGIHSASNFTNTNNYFTSVPKNFMELLTNQEAQQWVSGWRLNADSVLWGGHKVFMVKPEEPFQPVKEATQL [P94E] | 0.0659 | 0.0746 | 0.0632 |  | 0.0596 | 0.054 |  |  | 0.0601 |  | 0.0662 |  | 0.063 |  | 0.0637 |  |  | 
MGESLFKGPRDYNPISSSICHLTNESDGHTTSLYGIGFGPFIITNKHLFRRNNGTLVVQSLHGVFKVKDTTTLQQHLVDGRDMIIIRMPKDFPQFPQKLKFREPQREERICLVTTNFQTKSMSSMVSDTSCTFPSGDGIFWKHWIQTKDGQCGSPLVSTRDGFIVGIHSASNFTNTNNYFTSVPKNFMELLTNQEAQQWVSGWRLNADSVLWGGHKVFMVKPEEPFQPVKEATQL [P94Q] | 0.067 | 0.0642 | 0.0695 |  | 0.0721 | 0.0663 | 0.0597 | 0.0672 | 0.0664 | 0.0465 | 0.0692 | 0.0664 | 0.0682 | 0.0932 |  |  |  | 
MGESLFKGPRDYNPISSSICHLTNESDGHTTSLYGIGFGPFIITNKHLFRRNNGTLVVQSLHGVFKVKDTTTLQQHLVDGRDMIIIRMPKDFPYFPQKLKFREPQREERICLVTTNFQTKSMSSMVSDTSCTFPSGDGIFWKHWIQTKDGQCGSPLVSTRDGFIVGIHSASNFTNTNNYFTSVPKNFMELLTNQEAQQWVSGWRLNADSVLWGGHKVFMVKPEEPFQPVKEATQL [P94Y] | 0.0678 | 0.072 |  | 0.0926 |  | 0.0683 |  |  | 0.0466 |  | 0.0675 |  | 0.0643 | 0.106 |  |  |  | 
MGESLFKGPRDYNPISSSICHLTNESDGHTTSLYGIGFGPFIITNKHLFRRNNGTLVVQSLHGVFKVKDTTTLQQHLVDGRDMIIIRMPKDFPDFPQKLKFREPQREERICLVTTNFQTKSMSSMVSDTSCTFPSGDGIFWKHWIQTKDGQCGSPLVSTRDGFIVGIHSASNFTNTNNYFTSVPKNFMELLTNQEAQQWVSGWRLNADSVLWGGHKVFMVKPEEPFQPVKEATQL [P94D] | 0.0617 | 0.0478 |  | 0.0703 |  |  |  | 0.0618 | 0.0815 | 0.0656 |  |  |  |  | 0.0526 | 0.0788 |  | 
MGESLFKGPRDYNPISSSICHLTNESDGHTTSLYGIGFGPFIITNKHLFRRNNGTLVVQSLHGVFKVKDTTTLQQHLVDGRDMIIIRMWKDFPPFPQKLKFREPQREERICLVTTNFQTKSMSSMVSDTSCTFPSGDGIFWKHWIQTKDGQCGSPLVSTRDGFIVGIHSASNFTNTNNYFTSVPKNFMELLTNQEAQQWVSGWRLNADSVLWGGHKVFMVKPEEPFQPVKEATQL [P89W] | 0.0454 |  |  | 0.0275 | 0.0692 | 0.0677 |  |  | 0.0462 | 0.0432 | 0.0456 | 0.05 | 0.0568 | 0.0516 | 0.0471 |  | 0.0432 | 
MGESLFKGPRDYNPISSSICHLTNESDGHTTSLYGIGFGPFIITNKHLFRRNNGTLVVQSLHGVFKVKDTTTLQQHLVDGRDMIIIRMFKDFPPFPQKLKFREPQREERICLVTTNFQTKSMSSMVSDTSCTFPSGDGIFWKHWIQTKDGQCGSPLVSTRDGFIVGIHSASNFTNTNNYFTSVPKNFMELLTNQEAQQWVSGWRLNADSVLWGGHKVFMVKPEEPFQPVKEATQL [P89F] | 0.074 |  | 0.0673 |  | 0.0486 |  | 0.0527 |  | 0.0422 |  | 0.0556 | 0.0603 |  | 0.0603 |  |  |  | 
MGESLFKGPRDYNPISSSICHLTNESDGHTTSLYGIGFGPFIITNKHLFRRNNGTLVVQSLHGVFKVKDTTTLQQHLVDGRDMIIIRMEKDFPPFPQKLKFREPQREERICLVTTNFQTKSMSSMVSDTSCTFPSGDGIFWKHWIQTKDGQCGSPLVSTRDGFIVGIHSASNFTNTNNYFTSVPKNFMELLTNQEAQQWVSGWRLNADSVLWGGHKVFMVKPEEPFQPVKEATQL [P89E] | 0.0584 |  | 0.0817 | 0.0544 | 0.0626 | 0.0634 | 0.0633 | 0.0734 | 0.0555 | 0.0517 | 0.0483 | 0.0825 | 0.0542 | 0.0604 |  |  |  | 0.0561
